{
  "source": "PubChem BioAssay AID504332",
  "about": "(National Center for Advancing Translational Sciences (NCATS), 2011)",
  "note": "“And” between values parts separate entries of the source, which are not always exact repeats. Equal entries are not always repeated. The campaign covered roughly 350,000 compounds. About 31,000 (8.9%) were called active. Inconclusive results, whose numbers are uncertain, are shown with a selection of clear calls. Calls follow the shape of the dose curve; as a rule, active = well fitted inhibition curve with a large enough effect; inconclusive = small, poorly fitted or top-dose-only effect; inactive = no such curve, though single readings can be large or run the other way. A potency beside an inconclusive call is a rough fit, not a confirmed value. % is scaled to controls: 0 for no effect and ±100 for the full control effect; potency is read from the fitted curve at half-maximal effect; tags tell the direction and shape of the fitted curve.",
  "data": [
    {"molecular_target": "Histone-lysine N-methyltransferase EHMT2 (Homo sapiens) (UniProt Q96KQ7)", "sequence (Q96KQ7 whole entry, looked up)": "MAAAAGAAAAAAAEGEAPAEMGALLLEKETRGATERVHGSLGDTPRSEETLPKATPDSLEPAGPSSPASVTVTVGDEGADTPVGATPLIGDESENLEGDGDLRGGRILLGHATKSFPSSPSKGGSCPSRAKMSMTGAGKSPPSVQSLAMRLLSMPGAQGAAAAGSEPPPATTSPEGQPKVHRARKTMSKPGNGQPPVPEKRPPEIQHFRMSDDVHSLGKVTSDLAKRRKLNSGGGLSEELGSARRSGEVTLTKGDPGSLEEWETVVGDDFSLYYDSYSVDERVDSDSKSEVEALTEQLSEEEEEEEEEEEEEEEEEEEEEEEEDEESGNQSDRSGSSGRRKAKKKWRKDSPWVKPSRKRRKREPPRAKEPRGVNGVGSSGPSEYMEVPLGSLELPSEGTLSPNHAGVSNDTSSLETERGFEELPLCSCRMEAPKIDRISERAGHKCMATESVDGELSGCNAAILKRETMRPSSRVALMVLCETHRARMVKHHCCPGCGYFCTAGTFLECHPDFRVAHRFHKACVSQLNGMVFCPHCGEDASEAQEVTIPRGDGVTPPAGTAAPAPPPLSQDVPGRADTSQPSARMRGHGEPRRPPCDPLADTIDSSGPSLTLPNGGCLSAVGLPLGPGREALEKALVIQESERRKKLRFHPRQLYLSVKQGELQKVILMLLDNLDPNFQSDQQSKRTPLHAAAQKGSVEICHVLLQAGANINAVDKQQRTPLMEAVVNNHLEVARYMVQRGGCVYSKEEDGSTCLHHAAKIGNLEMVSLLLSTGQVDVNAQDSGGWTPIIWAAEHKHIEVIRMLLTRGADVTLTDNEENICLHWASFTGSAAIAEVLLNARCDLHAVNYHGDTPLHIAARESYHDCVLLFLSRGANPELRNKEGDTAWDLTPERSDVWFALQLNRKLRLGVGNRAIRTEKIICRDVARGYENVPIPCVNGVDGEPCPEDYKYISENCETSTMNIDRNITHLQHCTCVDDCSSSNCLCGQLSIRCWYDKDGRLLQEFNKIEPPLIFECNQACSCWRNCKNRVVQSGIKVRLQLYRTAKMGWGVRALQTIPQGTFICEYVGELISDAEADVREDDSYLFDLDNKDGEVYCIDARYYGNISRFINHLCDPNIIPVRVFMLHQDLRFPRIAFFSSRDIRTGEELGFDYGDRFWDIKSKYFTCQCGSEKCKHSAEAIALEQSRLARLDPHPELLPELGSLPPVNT", "test": "qHTS Assay for Inhibitors of Histone Lysine Methyltransferase G9a; also: nearly all actives have a fitted effect of over 75% in size", "settings": "G9a H3K9 monomethylation, AlphaScreen, 2 h; activity, negative = inhibition: at 59 µM (top of the series) unless noted", "method_in_brief": "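G9a (20 nM) preincubated 15 min RT with compounds, then 500 nM biotinylated H3K9 peptide and 20 uM SAM added; 2 h RT reaction. Monomethyl-H3K9 product detected by AlphaScreen with anti-H3K9me1 antibody, streptavidin donor and anti-rabbit IgG acceptor beads.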", "values": [
      {"molecule": "CCn1c(=O)cc(OCC(=O)N2CCN(c3cccc(Cl)c3)CC2)c2ccccc21", "Potency": "inconclusive: 20 µM [inhibitor, partial curve, poor fit]"},
      {"molecule": "CCN(CC)S(=O)(=O)c1ccc(N2CCOCC2)c(NC(=O)Cc2ccc(Cl)cc2)c1", "Potency": "inconclusive: 79.4 µM [inhibitor, single point]"},
      {"molecule": "O=S(=O)(c1ccccc1)c1nc(-c2ccco2)oc1NCc1cccnc1", "Potency": "inconclusive: 1.12 µM [inhibitor, full curve, poor fit]"},
      {"molecule": "CSc1sc(C)cc1C1C(C#N)=C(N)N(c2cccnc2)C2=C1C(=O)CC(C)(C)C2", "note": "(stereo not given)", "Potency": "inconclusive: 79.4 µM [inhibitor, single point]"},
      {"molecule": "COc1cc(C=C(C(C)=O)C(C)=O)ccc1O", "Potency": "inconclusive: 11.2 µM [inhibitor, partial curve, poor fit]"},
      {"molecule": "COc1ccc(N2C(=O)C(C)(C)C2c2c(O)ccc3ccccc23)cc1", "note": "(stereo not given)", "Potency": "inactive"},
      {"molecule": "CC(C)(C)NC(=O)CSc1nc(O)cc(=O)[nH]1", "Potency": "inconclusive: 8.91 µM [inhibitor, partial curve, poor fit]"},
      {"molecule": "COc1ccc(C(=O)NCCn2cc(SCC(=O)Nc3ccc(F)cc3)c3ccccc32)cc1", "Potency": "inactive"},
      {"molecule": "O=C1N=c2ccc(Br)cc2=C1c1sc(=O)[nH]c1O", "Potency": "active: 44.7 µM"},
      {"molecule": "C=CCNC(=O)CSc1nc2cc(C(=O)OCC)ccc2n1CC", "Potency": "inactive"},
      {"molecule": "Cc1nc(-c2ccc(S(=O)(=O)NCc3ccc(OC(C)C)cc3)cc2)co1", "Potency": "inactive"},
      {"molecule": "NC(=O)CC(NC(=O)Cc1cccc2ccccc12)c1ccc(N2CCC(Cc3ccccc3)CC2)c([N+](=O)[O-])c1", "note": "(stereo not given)", "Potency": "inconclusive: 89.1 µM [inhibitor, single point]"},
      {"molecule": "O=C(O)CCCCCNc1nc2ncn(Cc3ccccc3)c2c(=O)[nH]1", "Potency": "inconclusive: 1.58 µM [inhibitor, partial curve, poor fit]"},
      {"molecule": "Cc1c(N=c2scc(-c3ccccc3)n2CCO)c(=O)n(-c2ccccc2)n1C", "Potency": "inconclusive: 79.4 µM [inhibitor, single point]"},
      {"molecule": "Cn1c2ccccc2c2c(C(=O)NCc3ccco3)cn(C3CCCCC3)c(=O)c21", "Potency": "inconclusive: 79.4 µM [inhibitor, single point]"},
      {"molecule": "O=C(c1cccc(S(=O)(=O)N2CCN(c3ccccc3)CC2)c1)N1CCN(c2ccccc2O)CC1", "Potency": "inconclusive: 50.1 µM [inhibitor, partial curve]"},
      {"molecule": "CCN(CC)CCN(C(=O)c1ccc2c(c1)CCCC2)c1nc2ccc(C)cc2s1", "Potency": "inconclusive: 39.8 µM [inhibitor, partial curve, poor fit]"},
      {"molecule": "COc1cccc2c1C(=O)c1c(O)c3c(c(O)c1C2=O)C[C@@](O)(C(C)=O)C[C@@H]3O[C@H]1C[C@H](N)[C@H](O)[C@H](C)O1", "Potency": "active: 15.8 µM and active: 35.5 µM"},
      {"molecule": "CCSc1nnc(NC(=O)c2cc3c(s2)CCCC3)s1", "activity, negative = inhibition": "inconclusive: -67.3% [inhibitor]"},
      {"molecule": "O=C1CCCN1CCCNS(=O)(=O)c1ccc(F)cc1F", "Potency": "inconclusive: 89.1 µM [inhibitor, single point]"},
      {"molecule": "COCCSc1nnc(NC(=O)C2CC(=O)N(CCc3ccc(F)cc3)C2)s1", "note": "(stereo not given)", "Potency": "inconclusive: 89.1 µM [inhibitor, single point]"},
      {"molecule": "CCCCC(CC)CNC(=O)CCS(=O)(=O)c1cccc2nonc12", "note": "(stereo not given)", "Potency": "inactive"},
      {"molecule": "CCCCNC(=O)Nc1c(C(=O)OC)[nH]c2ccc(C)cc12", "Potency": "inconclusive: 3.16 µM [inhibitor, partial curve, poor fit]"},
      {"molecule": "COc1ccc2c(c1)C(C)CC(C)(C)N2C(=O)NC1CCCCC1", "note": "(stereo not given)", "Potency": "active: 44.7 µM"},
      {"molecule": "COc1cc(OC)c(NC(=O)C2CCCN(c3ncnc4c3nc3n4CCCCC3)C2)cc1Cl", "note": "(stereo not given)", "Potency": "inactive"},
      {"molecule": "O=C(COc1ccccc1Cl)NCC1(N2CCOCC2)CCCCC1", "Potency": "inactive"},
      {"molecule": "Cc1cccc(NC(=O)c2cc(NC(=O)c3ccccc3)ccc2N2CCCCC2)c1", "Potency": "inactive"},
      {"molecule": "CN1CCN(NC(=O)CN2C(=O)S/C(=C\\c3c(Cl)cccc3Cl)C2=O)CC1", "Potency": "inconclusive: 50.1 µM [inhibitor, partial curve]"},
      {"molecule": "COc1ccc(-c2ccccc2[C@H]2[C@@H]3C=CC[C@@H](C)[C@@H]3C(=O)N2Cc2ccccc2)cc1", "Potency": "inactive"},
      {"molecule": "O=C(/C(=N/N=C/c1ccc(O)c(O)c1)c1ccccc1)c1ccccc1", "Potency": "active: 31.6 µM"},
      {"molecule": "Cc1cccc(OCCn2c(-c3ccc(Cl)cc3)nc3ccccc3c2=O)c1", "Potency": "inactive"},
      {"molecule": "O=C(c1ccco1)N1CCN(Cc2nc3ccc([N+](=O)[O-])cc3c(=O)n2-c2ccccc2F)CC1", "Potency": "inconclusive: 89.1 µM [inhibitor, single point]"},
      {"molecule": "Cc1ccc(Nc2nc(-c3sc(NC(=O)c4ccco4)nc3C)cs2)cc1", "activity, negative = inhibition": "inconclusive: -81.8% [inhibitor]"},
      {"molecule": "CCCc1nn2c(=O)cc(COC(=O)c3cccc(NC(=O)COc4ccccc4C)c3)nc2s1", "activity, negative = inhibition": "inactive: -1.27% [at 12.7 µM]"},
      {"molecule": "COc1ccc(C2=C(C=Nc3c(C)n(C)n(-c4ccccc4)c3=O)C(c3ccccc3C)c3ccccc3O2)cc1OC", "note": "(stereo not given)", "Potency": "inconclusive: 3.16 µM [inhibitor, partial curve, poor fit]"},
      {"molecule": "CCN1CCN(CCCNC(=O)c2cc3c(=O)n(C)c4ccccc4c3s2)CC1", "Potency": "inactive"},
      {"molecule": "CCN(c1ccc2c(c1)OCO2)S(=O)(=O)c1cc(Br)cc2c1N(C(=O)C1CC1)CC2", "activity, negative = inhibition": "inconclusive: -77.2% [inhibitor]"},
      {"molecule": "Cc1ccc(-c2ccccc2NC(=O)C2C3C=CC(C3)C2C(=O)O)o1", "note": "(stereo not given)", "Potency": "inconclusive: 28.2 µM [inhibitor, single point]"},
      {"molecule": "CN1/C(=C\\C=N\\O)C(C)(C)c2ccccc21", "Potency": "inactive"},
      {"molecule": "Cc1ccc(S(=O)(=O)Nc2ccc3nc(N)sc3c2)cc1", "Potency": "inconclusive: 50.1 µM [inhibitor, partial curve, poor fit]"},
      {"molecule": "CCc1ccccc1N=C1S/C(=C/c2ccccc2OCC(=O)N2CCOCC2)C(=O)N1C", "Potency": "inconclusive: 10 µM [inhibitor, single point]"},
      {"molecule": "CCCCn1c(=O)[nH]c(=O)c2c1nc(-c1ccc(OCCC)c(OCC)c1)n2CCOC", "Potency": "inconclusive: 28.2 µM [inhibitor, partial curve, poor fit]"},
      {"molecule": "Cc1ccnc2nc(C(=O)Nc3nc4ccccc4s3)nn12", "Potency": "inactive"},
      {"molecule": "CC1CCN(C(=O)C(Cc2ccccc2)n2cccc2)CC1", "note": "(stereo not given)", "Potency": "inconclusive: 39.8 µM [inhibitor, single point]"},
      {"molecule": "CCOC(=O)C(=Nc1ccccc1)NO", "Potency": "inactive"},
      {"molecule": "NCCCC[C@H]1CN=C(N)N1CCC12CC3CC(CC(C3)C1)C2", "Potency": "inactive"},
      {"molecule": "O=c1ccc(NS(=O)(=O)c2ccc(Cl)cc2)cn1Cc1ccc(Cl)c(Cl)c1", "Potency": "inconclusive: 89.1 µM [inhibitor, single point]"},
      {"molecule": "CC(=O)c1c(C)nc2nc(-c3ccccc3)nn2c1C", "Potency": "inactive"},
      {"molecule": "Cc1ncc(CO)c(/C=N/NC(=S)Nc2ccc(C(C)C)cc2)c1O", "Potency": "inactive"},
      {"molecule": "COc1ccc(CCNC(=O)c2csc3c2CCCC3)cc1", "Potency": "inconclusive: 25.1 µM [inhibitor, partial curve, poor fit]"},
      {"molecule": "CCOc1ccccc1N1CCN(C(=O)c2ccc3[nH]c(C)c(C)c3c2)CC1", "Potency": "active: 79.4 µM"},
      {"molecule": "O=C(N/C=C\\c1ccccc1)NCc1ccc(Cl)cc1", "Potency": "inconclusive: 25.1 µM [inhibitor, single point]"},
      {"molecule": "C/C(CC(=O)Nc1ccccn1)=N\\NC(=O)c1ccc2ccccc2c1", "Potency": "inactive"},
      {"molecule": "O=C(O)c1ccc(NC(=S)Nc2ccccc2)cc1", "Potency": "inconclusive: 35.5 µM [inhibitor, single point]"},
      {"molecule": "Cc1cc2nnc(SCC(=O)Nc3ccc(F)c(Cl)c3)n2c2ccccc12", "Potency": "inactive"},
      {"molecule": "O=C(/C=C/c1ccc(O)cc1)c1ccc(O)cc1O", "Potency": "inactive"},
      {"molecule": "COc1ccc(C(=O)N2CCC3(CCN(C)CC3)CC2)cc1", "activity, negative = inhibition": "inactive: 14.7% [at 12.7 µM]"},
      {"molecule": "CCN1CCN(S(=O)(=O)c2ccc3c(c2)NC(=O)CS3)CC1", "Potency": "inconclusive: 39.8 µM [inhibitor, single point]"},
      {"molecule": "CCOC(=O)c1ccc(Nc2c(-c3ccc(O)c(OC)c3)nc3nc[nH]n23)cc1", "Potency": "inconclusive: 15.8 µM [inhibitor, partial curve]"},
      {"molecule": "COc1ccc(OC)c(/C=N/c2oc(-c3ccco3)c(-c3ccco3)c2C#N)c1", "Potency": "active: 31.6 µM"},
      {"molecule": "CCOC(=O)c1ccc(NS(=O)(=O)c2ccc3oc(=O)[nH]c3c2)cc1", "Potency": "inconclusive: 89.1 µM [inhibitor, single point]"},
      {"molecule": "O=C(CC1C(=O)NCCN1Cc1cccc(F)c1)NCCCOc1cccnc1", "note": "(stereo not given)", "Potency": "inconclusive: 89.1 µM [inhibitor, single point]"},
      {"molecule": "COC(=O)Cc1ccc(NC(=S)N2CCN(C(=O)C3CCCO3)CC2)cc1", "note": "(stereo not given)", "Potency": "inconclusive: 89.1 µM [inhibitor, single point]"},
      {"molecule": "Cc1ccc(NC(=O)CSCC(=O)Nc2cc(C(F)(F)F)ccc2N2CCOCC2)cc1", "Potency": "inactive"},
      {"molecule": "O=C(/C=C/c1ccccc1)NC(=S)Nc1ncccn1", "activity, negative = inhibition": "inconclusive: -57.1% [inhibitor]"},
      {"molecule": "O=C(CNC(=O)c1ccc(F)cc1)N/N=C/c1cc(Br)ccc1OCc1ccccc1", "Potency": "inactive"},
      {"molecule": "Cc1ccc(-n2nc(C(=O)NN)c(C)c(C#N)c2=O)cc1Cl", "Potency": "inconclusive: 50.1 µM [inhibitor, partial curve, poor fit]"},
      {"molecule": "O=C(CNCCO)N1CCc2ccccc21", "Potency": "inconclusive: 12.6 µM [inhibitor, partial curve, poor fit]"},
      {"molecule": "NS(=O)(=O)c1ccc(NC(=O)COC(=O)c2cn(-c3ccccc3)nc2-c2ccc(F)cc2)cc1", "Potency": "inactive"},
      {"molecule": "CCOC(=O)c1c(C)n(C)c2ccc(O)c(CN(C)C)c12", "Potency": "inconclusive: 39.8 µM [inhibitor, single point]"}
    ]}
  ]
}
